# In paper PMC10668032:
# This is one part of the list. At the low end of the ranking the order means little.
# Biological target: SIX1-Q177R homeodomain (UniProt Q15475)
# Assay: universal protein binding microarray
# Conditions: Universal all-10-mer PBM (8x60K, AMADID 030236), 300 nM GST-tagged protein, Alexa Fluor 488 anti-GST; buffer, salt, pH and temperature not stated; high values mean tight binding; most listed sequences are background and not binding sites; double strand, one strand shown
row,Sequence,binding signal
1,CAGATAAC,0.133 E-score
2,GATTCCTA,-0.0841 E-score
3,AGCTGCCT,-0.201 E-score
4,GCGGTTAC,0.0771 E-score
5,CAGCTTCC,-0.225 E-score
6,TCAGCTAA,-0.115 E-score
7,AGAAGTCG,-0.0442 E-score
8,GACCTTTA,-0.156 E-score
9,AAACTCTA,-0.165 E-score
10,AAGAAACC,0.0261 E-score
11,CCGAGGGA,0.109 E-score
12,GCCGGCTA,-0.0263 E-score
13,CGCGAGAC,0.0227 E-score
14,GGGACTCA,-0.237 E-score
15,ATGGAGAA,-0.159 E-score
16,CTTTACAA,-0.246 E-score
17,ATGGGGTC,0.241 E-score
18,ACGCCCAA,0.176 E-score
19,ATTAGGGG,0.15 E-score
20,ATTGAAAC,-0.112 E-score
21,ATCAACGA,-0.0938 E-score
22,AGATACCT,0.179 E-score
23,ATGCCTAC,-0.0194 E-score
24,AAAGGCTT,-0.349 E-score

row,Sequence,binding signal
1,ATGAGTGC,-0.144 E-score
2,GCTGAGCC,-0.194 E-score
3,AGGCTCGG,-0.15 E-score
4,ACACGGTC,0.413 E-score
5,AGTATGTG,0.0648 E-score
6,ACGTCAAG,0.0569 E-score
7,ATTAGGTA,-0.115 E-score
8,GCTTGTCA,-0.115 E-score
9,AGCTTTAC,-0.184 E-score
10,GAAGAGCC,-0.134 E-score
11,CGGTCCCC,-0.0297 E-score
12,CCTCCCCA,0.0488 E-score
13,AAGCTCTA,-0.0602 E-score
14,GTTCGGCA,0.0942 E-score
15,ACAGCTGA,-0.0986 E-score
16,GCAAGTCA,-0.111 E-score
17,GAAAAGCA,-0.158 E-score
18,ATTTGGAC,-0.0886 E-score
19,AATGGGTC,-0.11 E-score
20,GCACTGCA,-0.133 E-score
21,AAACACTA,0.298 E-score
22,ATGCTTTC,-0.138 E-score
23,ACCTATAG,0.0231 E-score
24,AATCTGAT,-0.0316 E-score

row,Sequence,binding signal
1,CGTTAGGA,-0.135 E-score
2,ACGCACAT,-0.11 E-score
3,ACTTTTCA,-0.094 E-score
4,AGAGACAC,0.411 E-score
5,ACTTCCGA,0.0231 E-score
6,AAACATTG,-0.157 E-score
7,AATCACAA,-0.217 E-score
8,CAAGGACC,0.126 E-score
9,CCATTTCA,-0.129 E-score
10,GTATGACA,0.257 E-score
11,ACTCTAAG,-0.0416 E-score
12,AACGGAAA,-0.172 E-score
13,CCGCAATA,-0.0576 E-score
14,GTAGTTGA,0.12 E-score
15,CAGCGGCC,-0.317 E-score
16,GCAGTAAC,-0.12 E-score
17,AGAGCGTG,0.189 E-score
18,GCCACTAC,-0.0291 E-score
19,TCAGCGAA,-0.139 E-score
20,ACATTCAC,-0.0952 E-score
21,CAAATTCC,-0.234 E-score
22,ACCCAACT,0.0776 E-score
23,CGCGAGAG,-0.108 E-score
24,AATTGGCC,-0.193 E-score

row,Sequence,binding signal
1,CCACAGCG,0.105 E-score
2,GGACGCCA,0.0277 E-score
3,AGACAGCG,-0.138 E-score
4,AAGCTATC,-0.223 E-score
5,CCGAGAGA,0.138 E-score
6,GCTCCGAA,-0.0737 E-score
7,AATAGAAT,-0.341 E-score
8,CGCGTGCA,0.00666 E-score
9,CTAACCAG,0.0712 E-score
10,ACATCTGA,-0.0519 E-score
11,CCTTCAGA,-0.0779 E-score
12,CCCCAGAA,0.137 E-score
13,ATCGCTGC,-0.147 E-score
14,ACTCTACA,0.296 E-score
15,ATCCTCAC,0.00347 E-score
16,CAAGCTCC,-0.142 E-score
17,ACTAACCA,0.0953 E-score
18,TGCCCGCA,-0.0887 E-score
19,GTTCAAAA,-0.113 E-score
20,ATAGTTTG,0.0043 E-score
21,CAGATGCG,-0.263 E-score
22,GCCAGGGA,-0.158 E-score
